Measured values taken from PubChem BioAssay (NCATS).
Inconclusive means that the source gave no clear call. Potencies of inconclusive entries are doubtful fits and often do not repeat.

What was measured:
[1] = P-glycoprotein substrates identified in KB-8-5-11 adenocarcinoma cell line, qHTS therapeutic library screen (AID 1346987); also: nearly all actives have a fitted effect of over 65% in size
Summary of the method: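 In this qHTS, P-gp-rich KB-8-5-11 cells received library compounds across a concentration range. Viability was quantified by luminescence after 72 h at 37 degree C.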

[2] = molecular target: Cytochrome P450 2D6 (Homo sapiens) (UniProt P10635); assay: Cytochrome P450 family 2 subfamily D member 6 (CYP2D6) small molecule antagonists: luciferase biochemical (cell-free) qHTS assay (AID 1645840; active = well fitted curve in the direction sought with a large enough effect in the repeat runs; inconclusive = weak or mixed curves; inactive = no such curve, though single readings can be large; an effect the other way counts as inactive or inconclusive; also: nearly all actives have a fitted effect of over 55% in size)
Summary of the method: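 P450-Glo CYP2D6 system: proluciferin substrate converted by enzyme to luciferin, read by luminescence proportional to activity. Enzyme-substrate mix with compound 10 min at room temperature, then NADPH regeneration 1 h before detection reagent.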

[3] = Primary qHTS for inhibitors of nuclear receptor binding SET domain protein 2 (NSD2) in an isogenic RCH-ACV NSD2 p.E1099K mutant (9B) (AID 1645876); also: nearly all actives have a fitted effect of over 70% in size
[4] = Primary qHTS for inhibitors of nuclear receptor binding SET domain protein 2 (NSD2) in an RCH-ACV wild type WT cells (2C) (AID 1645877); conditions: activity change, negative = cell killing: at 44.9 µM (top of the series; calls follow the shape of the full dose curve) unless noted; also: nearly all actives have a fitted effect of over 70% in size
[5] = test system: HEK293; assay: Cytotoxic Profiling of Annotated Libraries Using Quantitative High-Throughput Screening (AID 1296008); conditions: Five cell lines viability, CellTiter-Glo ATP luminescence, 48-72 h; max response: stronger effect = lower value; also: nearly all actives have a fitted effect of over 60% in size
Summary of the method: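 Cells exposed to compounds for 48 or 72 hr at 37 degrees Celsius. Viability read as ATP-coupled luminescence with CellTiter-Glo after 10 min at room temperature.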

[6] = test system: PA-1; assay: Primary qHTS to identify gynecologic anti-cancer compounds using libraries of approved drugs and bioactive compounds (AID 1345084); conditions: Gynecologic cancer cell panel viability, ATPlite luminescence, 48 h; series mostly up to 57.5 µM; also: nearly all actives have a fitted effect of over 55% in size
Summary of the method: (§1)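 Five-point cytotoxicity, 48 h drug exposure at 37 C, 5% CO2, on cells seeded 16 h beforehand. ATP content read by ATPlite luminescence.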

[7] = test system: SKOV3; assay: as above; conditions: Gynecologic cancer cell panel viability, ATPlite luminescence, 48 h; series mostly up to 57.5 µM
Summary of the method: as §1

Measured: Potency
Potency is read from the fitted curve at half-maximal effect; tags tell the direction and shape of the fitted curve.

UniProt P10635, sequence (P10635 whole entry, looked up): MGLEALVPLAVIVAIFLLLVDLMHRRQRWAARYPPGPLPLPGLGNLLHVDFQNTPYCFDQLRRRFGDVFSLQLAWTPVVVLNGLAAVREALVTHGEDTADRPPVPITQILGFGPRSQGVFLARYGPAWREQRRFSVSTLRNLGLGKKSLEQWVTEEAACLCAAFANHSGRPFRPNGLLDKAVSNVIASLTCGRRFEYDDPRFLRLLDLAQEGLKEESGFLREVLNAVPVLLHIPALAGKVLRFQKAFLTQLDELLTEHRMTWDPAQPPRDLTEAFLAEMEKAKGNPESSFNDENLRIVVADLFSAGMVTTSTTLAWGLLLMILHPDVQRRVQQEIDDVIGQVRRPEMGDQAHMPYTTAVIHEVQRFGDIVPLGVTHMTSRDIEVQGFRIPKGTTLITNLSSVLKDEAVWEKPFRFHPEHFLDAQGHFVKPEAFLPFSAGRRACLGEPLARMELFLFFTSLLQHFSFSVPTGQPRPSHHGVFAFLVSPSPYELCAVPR

O=C(Nc1ccccc1)N1CCN(c2nc(-c3ccccc3)ns2)CC1
inconclusive: [1] 18.4 µM [inhibitor, partial curve, poor fit] | [2] 26.8 µM [inhibitor, single point] | [3] 18.3 µM [inhibitor, partial curve] | [4] 14.5 µM [inhibitor, partial curve] | [5] 29.1 µM [inhibitor, single point] | [6] 22.4 µM [cytotoxic, single point] | [7] 17.8 µM [cytotoxic, partial curve, poor fit]
